Experimental data: ChEMBL document CHEMBL5674866 (J Biol Chem, 2015)
Activity calls are given as the source filed them. The calls are words filed in the database; no cut-off is given here.

Columns and labels:
[1] = molecular target: Protein kinase C theta type (Homo sapiens, UniProt Q04759); experiment: Inhibition of PRKCQ (unknown origin) by discoverX kinome scan assay
[2] = Inhibition of human FXR by Eurofins-CEREP pharmacology platform analysis
[3] = molecular target: Estrogen receptor (Homo sapiens, UniProt P03372); experiment: Inhibition of human ER-alpha by Eurofins-CEREP pharmacology platform analysis
[4] = molecular target: Phosphatidylinositol 4,5-bisphosphate 3-kinase catalytic subunit alpha isoform (Homo sapiens, UniProt P42336); experiment: Inhibition of human PIK3CA by discoverX kinome scan assay
[5] = tested on: KYSE-150 cell line; experiment: Effect on cellular post-translational modifications on histone H4 (KVLR) - K20 monomethylated in human KYSE-150 cells assessed as fold change by mass spectrometric analysis; type: functional
Outline: (§1)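 Histones acid-extracted from SMYD2-overexpressing KYSE-150 cells treated with vehicle or 5 μM inhibitor. Samples derivatized with propionic anhydride, then trypsin-digested for 6 h at 37 °C. Each modification's relative abundance on a peptide sequence, as a percentage, was quantified from MS and MS/MS spectra and compared with vehicle.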

[6] = molecular target: cGMP-dependent protein kinase 2 (Homo sapiens, UniProt Q13237); experiment: Inhibition of PRKG2 (unknown origin) by discoverX kinome scan assay
[7] = molecular target: Phosphatidylinositol 4-phosphate 3-kinase C2 domain-containing subunit beta (Homo sapiens, UniProt O00750); experiment: Inhibition of human PIK3C2B by discoverX kinome scan assay
Chain of UniProt O00750 (O00750 whole entry): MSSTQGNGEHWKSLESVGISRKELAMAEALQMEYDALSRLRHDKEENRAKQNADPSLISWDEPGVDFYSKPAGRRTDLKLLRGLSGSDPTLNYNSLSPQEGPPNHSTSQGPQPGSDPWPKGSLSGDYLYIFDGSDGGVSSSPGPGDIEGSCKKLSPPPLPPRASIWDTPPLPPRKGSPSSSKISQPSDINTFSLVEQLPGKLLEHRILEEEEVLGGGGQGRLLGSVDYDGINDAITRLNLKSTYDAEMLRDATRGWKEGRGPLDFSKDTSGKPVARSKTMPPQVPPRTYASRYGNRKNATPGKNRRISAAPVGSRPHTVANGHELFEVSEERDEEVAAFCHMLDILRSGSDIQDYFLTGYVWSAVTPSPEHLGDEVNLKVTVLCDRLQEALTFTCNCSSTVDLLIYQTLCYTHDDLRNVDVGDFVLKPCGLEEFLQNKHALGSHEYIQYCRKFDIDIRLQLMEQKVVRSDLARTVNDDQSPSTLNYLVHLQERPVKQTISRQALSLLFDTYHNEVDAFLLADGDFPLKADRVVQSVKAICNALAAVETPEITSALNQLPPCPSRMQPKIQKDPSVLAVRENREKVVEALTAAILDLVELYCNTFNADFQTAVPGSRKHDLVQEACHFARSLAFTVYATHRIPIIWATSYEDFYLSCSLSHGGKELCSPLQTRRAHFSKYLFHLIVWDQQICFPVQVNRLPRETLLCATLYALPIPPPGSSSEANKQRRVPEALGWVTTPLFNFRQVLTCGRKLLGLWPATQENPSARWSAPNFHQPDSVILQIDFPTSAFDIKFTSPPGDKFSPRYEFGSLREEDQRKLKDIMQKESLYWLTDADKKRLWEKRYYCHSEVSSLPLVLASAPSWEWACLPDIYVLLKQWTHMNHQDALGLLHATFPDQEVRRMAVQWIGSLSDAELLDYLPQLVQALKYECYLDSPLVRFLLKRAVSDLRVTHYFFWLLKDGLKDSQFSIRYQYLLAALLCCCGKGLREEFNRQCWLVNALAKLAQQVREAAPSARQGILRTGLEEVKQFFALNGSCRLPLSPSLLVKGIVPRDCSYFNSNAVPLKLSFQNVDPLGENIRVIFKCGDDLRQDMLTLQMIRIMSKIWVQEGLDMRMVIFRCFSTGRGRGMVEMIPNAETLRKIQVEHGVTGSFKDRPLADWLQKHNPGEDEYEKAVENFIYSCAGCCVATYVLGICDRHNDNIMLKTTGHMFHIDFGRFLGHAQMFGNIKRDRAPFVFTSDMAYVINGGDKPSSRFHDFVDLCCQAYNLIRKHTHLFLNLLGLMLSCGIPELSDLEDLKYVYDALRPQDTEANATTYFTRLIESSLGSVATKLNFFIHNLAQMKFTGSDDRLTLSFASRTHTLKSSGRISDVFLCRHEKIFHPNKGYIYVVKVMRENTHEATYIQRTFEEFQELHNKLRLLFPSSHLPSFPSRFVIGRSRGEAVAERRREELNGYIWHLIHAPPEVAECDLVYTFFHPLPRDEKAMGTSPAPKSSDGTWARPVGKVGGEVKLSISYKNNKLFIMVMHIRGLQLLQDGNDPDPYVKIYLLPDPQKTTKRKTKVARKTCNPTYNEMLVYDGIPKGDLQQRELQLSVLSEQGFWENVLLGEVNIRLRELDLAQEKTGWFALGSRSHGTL

[8] = tested on: KYSE-150 cell line; experiment: Effect on cellular post-translational modifications on histone H3 (KSTGGKAPR) - K9 trimethylated, K14 unmethylated in human KYSE-150 cells assessed as fold change by mass spectrometric analysis; type: functional; outline: as §1
[9] = molecular target: Cyclin-dependent kinase 16 (Homo sapiens, UniProt Q00536); experiment: Inhibition of human PCTK1 by discoverX kinome scan assay
Chain of UniProt Q00536 (Q00536 whole entry): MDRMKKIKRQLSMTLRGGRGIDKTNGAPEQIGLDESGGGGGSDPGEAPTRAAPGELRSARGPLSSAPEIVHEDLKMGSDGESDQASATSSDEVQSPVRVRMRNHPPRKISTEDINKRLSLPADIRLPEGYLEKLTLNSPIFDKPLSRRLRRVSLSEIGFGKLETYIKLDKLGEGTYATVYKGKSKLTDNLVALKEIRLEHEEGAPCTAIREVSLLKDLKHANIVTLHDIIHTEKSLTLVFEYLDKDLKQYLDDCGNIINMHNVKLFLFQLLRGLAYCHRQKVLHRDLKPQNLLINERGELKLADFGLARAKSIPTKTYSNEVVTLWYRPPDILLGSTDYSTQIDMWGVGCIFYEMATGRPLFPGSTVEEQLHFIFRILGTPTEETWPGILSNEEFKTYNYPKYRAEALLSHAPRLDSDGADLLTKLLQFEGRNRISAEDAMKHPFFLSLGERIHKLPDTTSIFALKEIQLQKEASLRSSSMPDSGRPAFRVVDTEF

[10] = molecular target: Platelet-derived growth factor receptor beta (Homo sapiens, UniProt P09619); experiment: Inhibition of human PDGFRB by discoverX kinome scan assay
Chain of UniProt P09619 (P09619 whole entry): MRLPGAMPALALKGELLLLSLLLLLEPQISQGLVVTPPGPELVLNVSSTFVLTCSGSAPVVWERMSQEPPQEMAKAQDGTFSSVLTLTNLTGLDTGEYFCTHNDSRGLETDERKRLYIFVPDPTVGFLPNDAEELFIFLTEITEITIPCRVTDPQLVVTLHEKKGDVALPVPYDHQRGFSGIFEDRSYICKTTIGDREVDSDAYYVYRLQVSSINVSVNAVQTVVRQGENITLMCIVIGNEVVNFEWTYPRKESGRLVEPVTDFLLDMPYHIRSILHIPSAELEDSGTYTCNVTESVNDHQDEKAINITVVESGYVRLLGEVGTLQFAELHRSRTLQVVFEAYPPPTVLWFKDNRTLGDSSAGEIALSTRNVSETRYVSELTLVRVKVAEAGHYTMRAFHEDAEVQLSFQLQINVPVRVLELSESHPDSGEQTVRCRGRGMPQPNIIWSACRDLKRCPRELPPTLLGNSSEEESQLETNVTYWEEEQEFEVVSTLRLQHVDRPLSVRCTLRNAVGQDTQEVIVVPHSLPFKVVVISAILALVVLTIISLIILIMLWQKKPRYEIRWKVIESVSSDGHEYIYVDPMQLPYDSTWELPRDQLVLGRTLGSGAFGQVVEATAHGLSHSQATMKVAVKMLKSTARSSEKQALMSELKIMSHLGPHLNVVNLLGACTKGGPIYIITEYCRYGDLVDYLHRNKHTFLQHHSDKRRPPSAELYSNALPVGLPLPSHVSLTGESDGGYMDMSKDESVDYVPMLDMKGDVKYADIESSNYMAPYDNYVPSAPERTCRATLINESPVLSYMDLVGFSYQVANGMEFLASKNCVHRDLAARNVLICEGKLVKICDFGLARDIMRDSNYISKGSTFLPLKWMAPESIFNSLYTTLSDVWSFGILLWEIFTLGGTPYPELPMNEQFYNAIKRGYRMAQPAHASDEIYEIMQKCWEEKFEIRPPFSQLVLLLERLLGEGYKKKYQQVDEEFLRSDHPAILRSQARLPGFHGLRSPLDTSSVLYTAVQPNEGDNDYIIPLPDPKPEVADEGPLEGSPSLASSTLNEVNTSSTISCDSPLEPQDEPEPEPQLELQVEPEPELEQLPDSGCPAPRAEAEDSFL

[11] = molecular target: Serine/threonine-protein kinase N1 (Homo sapiens, UniProt Q16512); experiment: Inhibition of human PKN1 by discoverX kinome scan assay
[12] = molecular target: Phosphatidylinositol 4,5-bisphosphate 3-kinase catalytic subunit delta isoform (Homo sapiens, UniProt O00329); experiment: Inhibition of human PIK3CD by discoverX kinome scan assay
Chain of UniProt O00329 (O00329 whole entry): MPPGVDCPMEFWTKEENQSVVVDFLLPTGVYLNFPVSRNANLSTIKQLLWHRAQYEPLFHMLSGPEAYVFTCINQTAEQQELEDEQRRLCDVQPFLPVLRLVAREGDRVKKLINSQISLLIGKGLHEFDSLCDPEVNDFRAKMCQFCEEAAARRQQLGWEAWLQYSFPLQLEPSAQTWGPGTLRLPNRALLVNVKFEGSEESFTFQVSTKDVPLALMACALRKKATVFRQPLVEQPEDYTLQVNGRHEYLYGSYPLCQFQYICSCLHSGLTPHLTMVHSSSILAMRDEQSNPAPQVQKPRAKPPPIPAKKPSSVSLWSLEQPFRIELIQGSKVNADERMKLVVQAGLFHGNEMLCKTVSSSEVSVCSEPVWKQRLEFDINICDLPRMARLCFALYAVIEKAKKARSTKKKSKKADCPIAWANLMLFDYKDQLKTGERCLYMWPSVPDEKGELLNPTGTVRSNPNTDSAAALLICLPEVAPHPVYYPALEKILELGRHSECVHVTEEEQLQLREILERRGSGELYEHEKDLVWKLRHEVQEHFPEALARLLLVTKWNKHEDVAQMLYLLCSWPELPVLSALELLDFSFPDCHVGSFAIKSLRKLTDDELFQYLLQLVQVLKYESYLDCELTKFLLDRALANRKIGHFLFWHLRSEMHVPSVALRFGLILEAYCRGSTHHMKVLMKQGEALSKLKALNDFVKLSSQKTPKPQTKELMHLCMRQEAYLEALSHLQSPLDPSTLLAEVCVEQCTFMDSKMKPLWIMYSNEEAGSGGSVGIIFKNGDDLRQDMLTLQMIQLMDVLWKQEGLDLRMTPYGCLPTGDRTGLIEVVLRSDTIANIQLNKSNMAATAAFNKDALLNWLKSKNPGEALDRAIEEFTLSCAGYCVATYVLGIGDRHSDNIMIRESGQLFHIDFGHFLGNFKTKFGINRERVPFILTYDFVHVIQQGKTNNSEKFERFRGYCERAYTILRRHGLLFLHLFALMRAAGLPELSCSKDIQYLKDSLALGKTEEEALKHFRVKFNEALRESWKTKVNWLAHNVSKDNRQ

[13] = tested on: KYSE-150 cell line; experiment: Effect on cellular post-translational modifications on histone H3 (KSTGGKAPR) - K9 acetylated, K14 acetylated in human KYSE-150 cells assessed as fold change by mass spectrometric analysis; type: functional
[14] = tested on: KYSE-150 cell line; experiment: Effect on cellular post-translational modifications on histone H3 (KSTGGKAPR) - K9 unmethylated, K14 acetylated in human KYSE-150 cells assessed as relative abundance at 5 by mass spectrometric analysis (reference value: 4.3+/-0.7No_unit); type: functional; conditions: dose 5 µM; outline: as §1
[15] = tested on: KYSE-30; experiment: Antiproliferative activity against human KYSE-30 cells measured after 7 day by celltitre-glo luminescent assay; type: functional, cell-based; conditions: KYSE-30, 168 h
[16] = molecular target: Phosphatidylinositol 5-phosphate 4-kinase type-2 gamma (Homo sapiens, UniProt Q8TBX8); experiment: Inhibition of human PIP5K2C by discoverX kinome scan assay
Chain of UniProt Q8TBX8 (Q8TBX8 whole entry, canonical isoform): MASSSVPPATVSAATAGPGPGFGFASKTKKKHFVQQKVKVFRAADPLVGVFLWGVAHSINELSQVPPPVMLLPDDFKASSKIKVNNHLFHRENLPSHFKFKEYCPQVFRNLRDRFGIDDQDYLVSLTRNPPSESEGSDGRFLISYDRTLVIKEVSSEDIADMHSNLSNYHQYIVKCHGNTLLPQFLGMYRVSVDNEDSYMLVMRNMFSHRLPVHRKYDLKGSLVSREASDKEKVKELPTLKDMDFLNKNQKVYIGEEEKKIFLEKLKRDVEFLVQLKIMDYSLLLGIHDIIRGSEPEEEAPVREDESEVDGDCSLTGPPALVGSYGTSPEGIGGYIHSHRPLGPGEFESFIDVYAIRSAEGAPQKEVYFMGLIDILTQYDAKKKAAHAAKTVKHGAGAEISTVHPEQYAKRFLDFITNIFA

[17] = molecular target: Phosphatidylinositol 4,5-bisphosphate 3-kinase catalytic subunit alpha isoform (Homo sapiens, UniProt P42336, M1043I); experiment: Inhibition of human PIK3CA M1043I mutant by discoverX kinome scan assay
[18] = molecular target: N-lysine methyltransferase SMYD2 (Homo sapiens) (UniProt Q9NRG4); experiment: Inhibition of FLAG-tagged SMYD2 methylation activity in human KYSE-150 cell line assessed as decrease in mono-methyl-Lys370 p53 by sandwich ELISA analysis; type: cell-based
Outline: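 KYSE-150 cells stably overexpressing FLAG-SMYD2, 1×10^6 per well, treated the following day with 0–5 μM for 24 h, then lysed. Sandwich electrochemiluminescence ELISA: capture with plate-coated methyl-p53 (Lys370me1) antibody, 0.5 μg lysate bound overnight at 4 °C, then SULFO-TAG total p53 detection antibody for 1 h at room temperature.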

[19] = tested on: KYSE-150 cell line; experiment: Effect on cellular post-translational modifications on histone H3 (EIAQDFKTDLR) - K79 unmethylated in human KYSE-150 cells assessed as fold change by mass spectrometric analysis; type: functional

`Cc1cn(CCN2CCN(c3ccccc3-c3cc(C#N)cc(C(=O)NCCCN4CCCC4)c3)CC2)c2ccccc12` gave an IC50 [1] greater than 20 µM, an IC50 [2] greater than 10 µM and an IC50 [3] greater than 10 µM. The IC50 [4] was greater than 20 µM, the “fold change (FC)” value [5] was 0.88 and the IC50 [6] was greater than 20 µM. The IC50 [7] was greater than 20 µM, the “fold change (FC)” value [8] was 1.1 and the IC50 [9] was greater than 20 µM. It also gave an IC50 [10] greater than 20 µM, an IC50 [11] greater than 20 µM and an IC50 [12] greater than 20 µM. The “fold change (FC)” value [13] was 0.9, the Activity [14] was 4.5 and the IC50 [15] was 0.3 µM. For the same molecule, the IC50 [16] was greater than 20 µM, the IC50 [17] was greater than 20 µM and the inhibition [18] was “Active”. For the same molecule, the “fold change (FC)” value [19] was 1.1.
